Our source for the displacement values is PubChem BioAssay AID1240 (Sanford-Burnham Center for Chemical Genomics, 2008).

Each structure is given as a SMILES string. Screen size: about 50,000 compounds; about 800 (1.6%) showed an effect of 50% or more. This is one part of the list.

This assay addresses Bcl-2-like protein 10 (Homo sapiens) (UniProt Q9HD36). Put plainly: TR3 peptide-Bcl-B binding displacers, biochemical primary FP assay, phenotype converters (AID 1240).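 Also: 0% = Bcl-B with tracer peptide and DMSO and 100% = tracer peptide lacking Bcl-B.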 To be noted: GST-Bcl-B / FITC-TR3 peptide fluorescence polarization; stronger effect = higher value; compound at 3.75 mg/L.
Chain of UniProt Q9HD36 (Q9HD36 whole entry, looked up): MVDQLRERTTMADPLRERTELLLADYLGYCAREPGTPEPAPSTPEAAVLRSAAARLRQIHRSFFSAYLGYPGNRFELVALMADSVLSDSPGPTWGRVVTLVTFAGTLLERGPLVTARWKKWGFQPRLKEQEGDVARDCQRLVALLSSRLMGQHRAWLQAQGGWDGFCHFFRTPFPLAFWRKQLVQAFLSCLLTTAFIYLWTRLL
Consider `COc1ccc(NC(=O)O/N=C\c2ccc(F)cc2)cc1`, for which the displacement worked out at 6.5%.
With `COc1cc(C(=O)Nc2cc(Cl)cc(Cl)c2)cc(OC)c1OC`, the displacement is -8%.
Next, `CC(C)c1ccc(N(CC(=O)Nc2ccccc2Cl)S(=O)(=O)c2ccccc2)cc1`: -3.7%; `CCC1CCc2c(sc(NC(=O)c3c(-c4c(Cl)cccc4Cl)noc3C)c2C(N)=O)C1` (stereo not drawn): -12.1%.
Next, `O=C(CC1(O)C(=O)Nc2ccc(Br)cc21)c1cccs1` (stereo not drawn): -0.3%; `N#CC(C#N)=C/C(=C/C(C#N)C#N)c1ccccc1`: 109%; `CCOC(=O)c1c(C)sc(C=O)c1NC(=O)c1ccc(Cl)cc1`: -15.7%.
Next, `NS(=O)(=O)c1ccc2c(c1)Cc1cc(S(N)(=O)=O)ccc1-2`: -3.9%.
Consider `C=C(C)COc1ccc2oc(-c3ccccc3)c(C(=O)OCC)c2c1`, for which the displacement amounted to 7.6%.
Turning to `O=C1NC(=S)S/C1=C/c1cccc(OCc2ccccc2)c1`, the displacement came to 5.4%.
Next, `O=C(Nc1ccccc1)C1CC(=O)N(C2CCCCC2)C1` (stereo not drawn): 0.3%; `O=C1C2ON(c3ccccc3)C(c3cccc([N+](=O)[O-])c3)C2C(=O)N1Cc1ccccc1` (stereo not drawn): -3.8%.
Next, `COc1ccccc1-c1coc2c(CN3CCC(C)CC3)c(O)ccc2c1=O`: 11.9%.
With `COC(=O)C1=C(C)N(C)C(=O)/C1=C\c1ccc2c(c1)OCO2` the figure was -0.7%; with `CCOC(=O)c1[nH]c(=O)[nH]c1Cn1ccnc1`, -4.6%; with `COc1ccc(C2CC(=O)C3=C(C2)Nc2ccccc2NC3c2cccc(F)c2)cc1` (stereo not drawn), 6.4%.
For `CCOc1ccc(/C=C2\C(=O)NC(=O)N(c3ccccc3C)C2=O)cc1Cl`, the displacement is 0.3%.
Next, `O=C1CC(O)(C(F)(F)F)Oc2c1ccc1ccccc21` (stereo not drawn): 4.7%; `COC(=O)c1cccc(-c2ccc(/C=C3\C(=O)N(c4ccc(S(N)(=O)=O)cc4)N=C3C)o2)c1`: -5.2%.
For the compound `O=C(N/N=C/c1c(F)cccc1Cl)c1ccccc1I`, the displacement turned out to be 15.3%.
Regarding `CCOc1ccc(C(=O)Nc2cccc([N+](=O)[O-])c2)cc1Cl`, the displacement came out at 11.6%.
Next, `Cc1ccc(OCCn2c(SCc3nc4ccccc4[nH]3)nc3ccccc32)cc1`: 18%; `CCCCNC(=O)CCC(=O)NN(C)C`: 7.6%; `O=C(O)CN1C(=O)/C(=C/c2cccc(OCc3ccccc3Cl)c2)SC1=S`: 5.1%.
Consider `N=c1sc(Cc2ccc(Br)cc2)cn1CC(=O)c1ccc(Cl)cc1`, for which the displacement is -9.8%.
Consider `COc1cc(/C=C2\C(=O)NC(=O)N(c3ccc(Cl)cc3)C2=O)c([N+](=O)[O-])cc1OC`, for which the displacement amounted to 17.3%.
Next, `CCOC(=O)c1cc2n(c1N(C(C)=O)C(C)=O)-c1ccccc1C2=O`: -4.9%; `COc1ccc(CCNC2CC(=O)N(c3ccc(F)cc3)C2=O)cc1OC` (stereo not drawn): 3.2%.
Next, `CC1=C(C#N)C(=O)NC(=O)/C1=C\c1ccc(-c2cc(C)c(C)cc2[N+](=O)[O-])o1`: 9.4%.
In the case of `COc1cccc(-c2cc(C(=O)Nc3nn[nH]n3)c3ccccc3n2)c1`, the displacement is -0.9%.
With `C(=C\c1ccccc1)/CSc1nnc(-c2ccco2)n1-c1ccccc1` the figure was -12.5%; with `COC(=O)c1ccccc1NC(=O)CN(c1cccc(Br)c1)S(=O)(=O)c1ccccc1`, 6.6%; with `CC(=O)Nc1ccc(C(=O)n2nc(C)cc2C)cc1`, 2%.
`COc1ccc(C(=O)/C=C/Nc2cccc(Cl)c2Cl)cc1`: the displacement is 13.4%.
With `CCOc1ccccc1NC(=O)c1c(NC(=O)c2ccc(C)cc2)sc2c1CCCC2` the figure was -0.3%; with `COc1ccc(COc2ccc3c(C)cc(=O)oc3c2)cc1`, -1.5%; with `O=C(Oc1c(Br)cc(Br)cc1/C=N/NC(=O)c1ccccn1)c1cccc(F)c1`, 18.3%.
Next, `Cc1ccc(C(=O)N/C(=C\c2cccc([N+](=O)[O-])c2)C(=O)N2CCOCC2)cc1`: 0.8%; `COc1cc2c(cc1NC(=O)COc1ccc(C)cc1Br)oc1ccccc12`: 9.1%.
Next, `COCCNC(=O)c1cc2nc(-c3ccc(OC)c(OC)c3)cc(C(F)(F)F)n2n1`: -7.3%; `Cc1ccc(Cl)cc1NC(=O)CN(CCc1ccccc1)S(=O)(=O)c1ccccc1`: -3.4%.
As to `COc1ccc(N(C(C)C(=O)Nc2cc(C)cc(C)c2)S(C)(=O)=O)cc1` (stereo not drawn), the displacement turned out to be 7.3%.
With `Cc1cccc(C)c1OCC(=O)Nc1sc2c(c1C(N)=O)CCC2` the figure was -1.5%; with `O=C(Nc1nc2ccccc2n1CCN1CCCCC1)c1ccc(Cl)cc1`, -22.2%.
Regarding `Clc1ccc(CC(Cc2nc3ccccc3[nH]2)c2nc3ccccc3[nH]2)cc1` (stereo not drawn), the displacement was -4.3%.
With `C/C(=N\Nc1ccc([N+](=O)[O-])cc1)c1ccc(-n2nncc2C)cc1` the figure was 47.3%; with `Cc1cccc(N2C(=O)C(=O)/C(=C(\O)c3ccccc3)C2c2ccc(F)cc2)c1` (stereo not drawn), 5%.
With `CC1=NN(C(=O)c2ccncc2)C(O)(c2cccnc2)C1` (stereo not drawn) the figure was 11%; with `COc1ccc(N(CC(N)=O)S(C)(=O)=O)cc1`, -0.4%; with `COc1cc(-c2c(C#N)c(N)n3c(nc4ccccc43)c2C#N)ccc1OCc1ccccc1F`, -3.9%.
With `Cc1ccc(N2C(=O)CC(Nc3ccc(N4CCOCC4)cc3)C2=O)cc1` (stereo not drawn) the figure was -2.5%; with `COc1ccccc1N1CCN(/N=C\c2cccc(OC)c2O)CC1`, 2.5%; with `FC(F)(F)c1ccc2nnc(-c3ccc(Br)cc3)n2c1`, 10.3%.
Turning to `COc1ccc(NC(=O)c2cc(OC)c(OC)c(OC)c2)cc1OC`, the displacement stood at 7.5%.
Next, `CC1=NN(c2ccc(S(N)(=O)=O)cc2)C(=O)/C1=C\c1ccc(O)c([N+](=O)[O-])c1`: 6.5%.
Next, `CCOC(=O)C(C(=O)OCC)C1OC(=O)c2cc3c(cc21)C(=O)OC3C(C(=O)OCC)C(=O)OCC` (stereo not drawn): 15.1%; `O=C(O)CCCN1C(=O)/C(=C/c2cccc(F)c2)SC1=S`: 31.1%.
Next, `CC(NC(=O)CSCc1cccc(Br)c1)c1ccccc1` (stereo not drawn): 7.8%; `Cc1cccc(NC2=NC3(CCCCC3)N=C(N)N2)c1C`: -11.9%.
On to `O=C(Nc1cc(Cl)cc(Cl)c1)c1ccc(CN2CCc3ccccc3C2)cc1`, for which the displacement was -3.7%.
Regarding `Cc1c(Cl)c(C(F)(F)F)nn1CC(=O)Nc1ccccc1C(F)(F)F`, the displacement came out at 12.3%.
With `CCSCCOC(=O)C1=C(C)NC2=C(C(=O)CCC2)C1c1cccc([N+](=O)[O-])c1` (stereo not drawn) the figure was 5.6%.
Next, `O=C1C(=Cc2ccc(-c3ccccc3[N+](=O)[O-])o2)C(=O)c2ccccc21`: -3.3%; `COc1ccc(S(=O)(=O)N2CCN(C(=O)COc3ccccc3)CC2)cc1`: 11.2%; `O=C1c2ccccc2C(=O)N1CC=C(Cl)Cl`: 14.3%.
Consider `O=C(O)/C=C/C(=O)Nc1ccccc1C(=O)Nc1ccccc1`, for which the displacement is -11.6%.
With `CCN(CC)CCOc1c(C)cc(Cl)cc1C` the figure was 5.2%.
Regarding `Cc1ccc(N2C(=O)CC(N3CCN(Cc4ccccc4)CC3)C2=O)cc1` (stereo not drawn), the displacement stood at 6.5%.
With `COc1ccc(CC(=O)N2N=C(C)CC2(O)c2ccc(Cl)cc2)cc1OC` (stereo not drawn), the displacement is -9.6%.
For `O=C(CSc1nnc(-c2ccco2)n1-c1ccccc1)Nc1ccccc1[N+](=O)[O-]`, the displacement was -2.3%.
Next, `O=C(Nc1ccc(F)cc1)c1ccccc1C(F)(F)F`: 12.4%; `O=C1C=CC(=O)N1c1ccccc1N1C(=O)C=CC1=O`: -0.9%.
With `O=C(NCCNC(=O)c1cccs1)c1cccs1` the figure was -2.4%; with `COC(=O)c1c(O)ccc(-c2ccc(OC)cc2)c1C(=O)OC`, -3.6%.
Next, `CCCC(C(=O)O)N1C(=O)/C(=C/c2cccc(O)c2)SC1=S` (stereo not drawn): 9.6%; `O=C(Nc1ccccc1C(=O)Nc1ccc(Br)cc1)c1ccco1`: 0.8%.
For `COc1ccc(-c2noc(-c3ccco3)n2)cc1OC`, the displacement was -14.2%.
Next, `CN(/N=C\c1ccco1)c1nc(-c2ccccc2)cc(-c2ccccc2)n1`: 5.3%; `CC(=O)c1c(C)oc2ccc(O)c(N)c12`: 18.7%; `CCOC(=O)c1ccc(NC(=O)COc2ccc3ccccc3c2)cc1`: -5.3%.
`CN(CCO)C1=NS(=O)(=O)c2ccccc21`: the displacement is -0.6%.
With `CCOc1ccccc1NC(=O)c1c(N)sc2c1CCC(C)C2` (stereo not drawn) the figure was -4.8%.
Consider `COc1ccc(Cl)cc1N(CC(=O)NCC(C)C)S(=O)(=O)c1ccc(C)c([N+](=O)[O-])c1`, for which the displacement was 16.7%.
Next, `O=C(NCc1ccco1)C(=O)Nc1ccc(Oc2ccccc2)cc1`: 0.1%; `COc1cccc(Nc2c([N+](=O)[O-])c(=O)n(C)c3ccccc23)c1`: -6.2%.
In the case of `COc1ccc(C2/C(=C(\O)c3ccccc3)C(=O)C(=O)N2CCCC(=O)O)c(OC)c1` (stereo not drawn), the displacement is -14%.
With `Cc1ccc2nsnc2c1NC(=O)c1ccc2c(c1)OCCO2` the figure was 18.5%; with `O=c1c2ccccc2c2ccccc2c(=O)n1CC1CCCO1` (stereo not drawn), -8.2%.
As for `O=C(O)/C=C/C(=O)Nc1ccc(F)cc1F`, the displacement is -10.4%.
Next, `Cc1cc(C)nc(SCC(=O)Nc2nnc(-c3ccccc3)s2)n1`: -12.6%; `Cc1nn(Cc2ccccc2)c(N)c1-c1ccccc1`: 5%.
Next, `O=C(NC(Cc1ccccc1)C(=O)O)/C(=C\c1ccc2c(c1)OCO2)NC(=O)c1ccco1` (stereo not drawn): 4.1%.
With `Cc1n(Cc2ccccc2)c2ccccc2[n+]1C` the figure was 8.7%.
For `C/C(=N\NC(=O)c1cc(C2CC2)[nH]n1)c1ccc2ccccc2c1`, the displacement is -15.4%.
On to `Cc1ccc(S(=O)(=O)N/N=C/c2ccc(OS(=O)(=O)c3cccc([N+](=O)[O-])c3)cc2)cc1`, for which the displacement is -7.8%.
With `O=C(Cc1ccccc1)Nc1ccc(-c2nc3ccccc3s2)c(O)c1` the figure was -3.3%; with `COc1ccc(C(=O)Nc2ncc(Br)cc2Br)cc1[N+](=O)[O-]`, -0.9%; with `COc1ccc(C(=O)Oc2ccc3oc(=O)cc(C)c3c2)cc1OC`, 10.9%.
With `O=C(/C=C/c1ccc2c(c1)OCO2)Nc1ccc(Cl)c(Cl)c1` the figure was -17%; with `Cc1cccc(NCCC(=O)c2cccc([N+](=O)[O-])c2)c1C`, -13%; with `N#Cc1c(N)nc2c(c1-c1cccc(O)c1)CCCCC2`, -0.1%.
On to `C/C=C/C=C(\NC(=O)c1ccccc1)C(=O)O`, for which the displacement was -1%.
Next, `CCOc1ccccc1NC(=O)CN(c1ccc(OC)cc1)S(=O)(=O)c1ccc(C)cc1`: 1.8%; `CC(C)c1ccc(C2OC3(C(=O)c4ccccc4C3=O)C3C(=O)N(c4ccc(Cl)c(Cl)c4)C(=O)C23)cc1` (stereo not drawn): 4.5%; `O=C(Nc1cccc(Br)c1)c1cccs1`: 7.5%.
With `c1ccc(-n2ncc3c2CCc2c-3[nH]c3ccccc23)cc1` the figure was 3.2%; with `CSc1[nH]c(-c2ccccc2)cc1C(C)=O`, 4.5%; with `CCCCP(=O)(CCCC)CP(=O)(c1ccccc1)c1ccccc1`, -1.3%.
